{
  "source": "paper PMC4242493",
  "note": "This is one part of the list. The list includes weakly bound sequences.",
  "data": [
    {"biological_target": "MaxL homodimer (UniProt P61244)", "sequence (P61244 whole entry)": "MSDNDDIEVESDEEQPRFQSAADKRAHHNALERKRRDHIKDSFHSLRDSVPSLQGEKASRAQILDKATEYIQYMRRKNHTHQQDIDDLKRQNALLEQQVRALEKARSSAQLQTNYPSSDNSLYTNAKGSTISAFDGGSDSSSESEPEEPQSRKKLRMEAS", "assay": "universal protein-binding microarray (PBM)", "details": "PBS-based mixture, 10 nM His-tagged protein dimer, 2% milk, 200 ng/uL BSA, 50 ng/uL salmon testes DNA, 0.02% TX-100; detection with Alexa 488 anti-His …; high values mean tight binding; most listed sequences are background and not binding sites; double strand, one strand shown", "values": [
      {"sequence": "ACCTTAGT", "binding signal (normalized occupancy)": 0.0723},
      {"sequence": "AAAGAGTA", "binding signal (normalized occupancy)": 0.0749},
      {"sequence": "CCCTCCGC", "binding signal (normalized occupancy)": 0.0699},
      {"sequence": "CTACTTTC", "binding signal (normalized occupancy)": 0.0724},
      {"sequence": "CCGGGGCA", "binding signal (normalized occupancy)": 0.0681},
      {"sequence": "GGATCACA", "binding signal (normalized occupancy)": 0.0829},
      {"sequence": "AGCAGTTG", "binding signal (normalized occupancy)": 0.0704},
      {"sequence": "GAGTGATA", "binding signal (normalized occupancy)": 0.0802},
      {"sequence": "CACTCCGG", "binding signal (normalized occupancy)": 0.077},
      {"sequence": "AACCCTTG", "binding signal (normalized occupancy)": 0.0716},
      {"sequence": "CGTGTGTA", "binding signal (normalized occupancy)": 0.0944},
      {"sequence": "AGCGCTTA", "binding signal (normalized occupancy)": 0.0704},
      {"sequence": "AAGAAATG", "binding signal (normalized occupancy)": 0.0795},
      {"sequence": "ACGTAGGA", "binding signal (normalized occupancy)": 0.0763},
      {"sequence": "AACTGGAT", "binding signal (normalized occupancy)": 0.0715},
      {"sequence": "GGCCGTCA", "binding signal (normalized occupancy)": 0.0676},
      {"sequence": "GTTTAGGA", "binding signal (normalized occupancy)": 0.0787},
      {"sequence": "GAACATTC", "binding signal (normalized occupancy)": 0.073},
      {"sequence": "AGGGCCAA", "binding signal (normalized occupancy)": 0.0686},
      {"sequence": "ACCAGGTC", "binding signal (normalized occupancy)": 0.0714},
      {"sequence": "CTCTAAGA", "binding signal (normalized occupancy)": 0.0766},
      {"sequence": "CCTTTGCC", "binding signal (normalized occupancy)": 0.0712},
      {"sequence": "CAAGAGTA", "binding signal (normalized occupancy)": 0.0757},
      {"sequence": "TAGGTTAA", "binding signal (normalized occupancy)": 0.0744},
      {"sequence": "AGTCTGTC", "binding signal (normalized occupancy)": 0.0725},
      {"sequence": "CTACGCAA", "binding signal (normalized occupancy)": 0.0703},
      {"sequence": "AGTAACCA", "binding signal (normalized occupancy)": 0.0736},
      {"sequence": "GAGCGCTC", "binding signal (normalized occupancy)": 0.0657},
      {"sequence": "ATGTAGTA", "binding signal (normalized occupancy)": 0.0852},
      {"sequence": "CTAATAGA", "binding signal (normalized occupancy)": 0.0765},
      {"sequence": "CGATGTAC", "binding signal (normalized occupancy)": 0.0857},
      {"sequence": "AAGCTGAA", "binding signal (normalized occupancy)": 0.0694},
      {"sequence": "CGAATGTC", "binding signal (normalized occupancy)": 0.074},
      {"sequence": "GCGTGGAA", "binding signal (normalized occupancy)": 0.106},
      {"sequence": "CCGATAAC", "binding signal (normalized occupancy)": 0.0784},
      {"sequence": "TGCGGACA", "binding signal (normalized occupancy)": 0.0827},
      {"sequence": "CCCATCCG", "binding signal (normalized occupancy)": 0.078},
      {"sequence": "CGGACAAA", "binding signal (normalized occupancy)": 0.0761},
      {"sequence": "CAAACTCA", "binding signal (normalized occupancy)": 0.0693},
      {"sequence": "ATCCGTCG", "binding signal (normalized occupancy)": 0.0729},
      {"sequence": "TCGGTCCA", "binding signal (normalized occupancy)": 0.0746},
      {"sequence": "ACCGTCAA", "binding signal (normalized occupancy)": 0.0676},
      {"sequence": "ACCGCGAC", "binding signal (normalized occupancy)": 0.0704},
      {"sequence": "CCCTTCCG", "binding signal (normalized occupancy)": 0.0757},
      {"sequence": "GAATGACA", "binding signal (normalized occupancy)": 0.0776},
      {"sequence": "CTTCACCA", "binding signal (normalized occupancy)": 0.085},
      {"sequence": "ACACGGCC", "binding signal (normalized occupancy)": 0.0719},
      {"sequence": "CAGGAGTA", "binding signal (normalized occupancy)": 0.0702},
      {"sequence": "ACTTTAGC", "binding signal (normalized occupancy)": 0.0733},
      {"sequence": "GAGGGTCA", "binding signal (normalized occupancy)": 0.0732},
      {"sequence": "AAAACCAC", "binding signal (normalized occupancy)": 0.0831},
      {"sequence": "ACCCCCCT", "binding signal (normalized occupancy)": 0.0827},
      {"sequence": "GTTACATA", "binding signal (normalized occupancy)": 0.0831},
      {"sequence": "AAAGATAT", "binding signal (normalized occupancy)": 0.0774},
      {"sequence": "CCAGCAGG", "binding signal (normalized occupancy)": 0.0704},
      {"sequence": "CGACACCC", "binding signal (normalized occupancy)": 0.0753},
      {"sequence": "AACCAACC", "binding signal (normalized occupancy)": 0.0803},
      {"sequence": "ACCCTCCA", "binding signal (normalized occupancy)": 0.0761},
      {"sequence": "CCTTTTAG", "binding signal (normalized occupancy)": 0.0677},
      {"sequence": "GGGTGAAA", "binding signal (normalized occupancy)": 0.0768},
      {"sequence": "GGTTACAC", "binding signal (normalized occupancy)": 0.0762},
      {"sequence": "ACGACTTG", "binding signal (normalized occupancy)": 0.0738},
      {"sequence": "CCATCCCA", "binding signal (normalized occupancy)": 0.0843},
      {"sequence": "GCTCCGAC", "binding signal (normalized occupancy)": 0.0713},
      {"sequence": "CACGATAG", "binding signal (normalized occupancy)": 0.0854},
      {"sequence": "GGAGACAA", "binding signal (normalized occupancy)": 0.0754},
      {"sequence": "AAACACTT", "binding signal (normalized occupancy)": 0.074},
      {"sequence": "CCAACACG", "binding signal (normalized occupancy)": 0.09},
      {"sequence": "CTGGTCGC", "binding signal (normalized occupancy)": 0.0732},
      {"sequence": "CGCAGTGA", "binding signal (normalized occupancy)": 0.0713},
      {"sequence": "CAGGCTAA", "binding signal (normalized occupancy)": 0.0733},
      {"sequence": "GTCGGTGA", "binding signal (normalized occupancy)": 0.0767},
      {"sequence": "CCATATCC", "binding signal (normalized occupancy)": 0.0911},
      {"sequence": "AGTGCGGC", "binding signal (normalized occupancy)": 0.0733},
      {"sequence": "ATAAGGTA", "binding signal (normalized occupancy)": 0.0816},
      {"sequence": "AATGAACG", "binding signal (normalized occupancy)": 0.0824},
      {"sequence": "AAATGCCG", "binding signal (normalized occupancy)": 0.0733},
      {"sequence": "CAGATCCC", "binding signal (normalized occupancy)": 0.0769},
      {"sequence": "CCATAACG", "binding signal (normalized occupancy)": 0.0785},
      {"sequence": "CACGACCG", "binding signal (normalized occupancy)": 0.0808},
      {"sequence": "CAGGGAGC", "binding signal (normalized occupancy)": 0.0716},
      {"sequence": "TAGTACCA", "binding signal (normalized occupancy)": 0.074},
      {"sequence": "CTCGTGGA", "binding signal (normalized occupancy)": 0.103},
      {"sequence": "GGAAGAAC", "binding signal (normalized occupancy)": 0.0768},
      {"sequence": "AAGTTTGA", "binding signal (normalized occupancy)": 0.0728},
      {"sequence": "CCAGTAGC", "binding signal (normalized occupancy)": 0.0653},
      {"sequence": "CACCGATC", "binding signal (normalized occupancy)": 0.0738},
      {"sequence": "ATGTGATC", "binding signal (normalized occupancy)": 0.0964},
      {"sequence": "ACACCATG", "binding signal (normalized occupancy)": 0.0916},
      {"sequence": "CCGGACCC", "binding signal (normalized occupancy)": 0.0706},
      {"sequence": "GCAACGGC", "binding signal (normalized occupancy)": 0.07},
      {"sequence": "CACTCAAG", "binding signal (normalized occupancy)": 0.0744},
      {"sequence": "GACCACGA", "binding signal (normalized occupancy)": 0.0865},
      {"sequence": "GGCTCAAC", "binding signal (normalized occupancy)": 0.0722},
      {"sequence": "ACCGTAAA", "binding signal (normalized occupancy)": 0.0786},
      {"sequence": "GCGAGGGA", "binding signal (normalized occupancy)": 0.0782},
      {"sequence": "AAGCCGGA", "binding signal (normalized occupancy)": 0.065},
      {"sequence": "TAAACCAA", "binding signal (normalized occupancy)": 0.0701},
      {"sequence": "ACTCAGGA", "binding signal (normalized occupancy)": 0.0719},
      {"sequence": "GATGGAGA", "binding signal (normalized occupancy)": 0.0786},
      {"sequence": "TCTTGAAA", "binding signal (normalized occupancy)": 0.066},
      {"sequence": "CGAGCGAG", "binding signal (normalized occupancy)": 0.0704},
      {"sequence": "GACAAAGC", "binding signal (normalized occupancy)": 0.0683},
      {"sequence": "CGGACGAG", "binding signal (normalized occupancy)": 0.0688},
      {"sequence": "ACTCGCCT", "binding signal (normalized occupancy)": 0.0753},
      {"sequence": "AACCCACT", "binding signal (normalized occupancy)": 0.0715},
      {"sequence": "CTATGCCA", "binding signal (normalized occupancy)": 0.0777},
      {"sequence": "CACGCTAG", "binding signal (normalized occupancy)": 0.0976},
      {"sequence": "CGTCCAAG", "binding signal (normalized occupancy)": 0.0698}
    ]}
  ]
}
